{
  "source": "PubChem BioAssay AID624417",
  "about": "(National Center for Advancing Translational Sciences (NCATS), 2012)",
  "note": "Several values for one entry are separate records, joined by “and”; a condition that tells them apart may be missing. Identical values can stand only once. Hit rate of the full screen: of about 410,000 compounds, about 6,400 (1.6%) were called active. Inconclusive results, whose numbers are uncertain, are shown with a selection of clear calls. Calls come from the whole dose curve; as a rule, active = well fitted inhibition curve with a large enough effect; inconclusive = small, poorly fitted or top-dose-only effect; inactive = no such curve, though single readings can be large or run the other way. Where the call is inconclusive, the potency comes from a doubtful curve fit. % is set by controls: 0 for no effect and ±100 for the full control effect; potency is the fitted concentration of half-maximal effect; tags give direction and shape of the fitted curve.",
  "data": [
    {"biological_target": "Glucagon-like peptide 1 receptor (Homo sapiens) (UniProt P43220)", "sequence (P43220 whole entry, looked up)": "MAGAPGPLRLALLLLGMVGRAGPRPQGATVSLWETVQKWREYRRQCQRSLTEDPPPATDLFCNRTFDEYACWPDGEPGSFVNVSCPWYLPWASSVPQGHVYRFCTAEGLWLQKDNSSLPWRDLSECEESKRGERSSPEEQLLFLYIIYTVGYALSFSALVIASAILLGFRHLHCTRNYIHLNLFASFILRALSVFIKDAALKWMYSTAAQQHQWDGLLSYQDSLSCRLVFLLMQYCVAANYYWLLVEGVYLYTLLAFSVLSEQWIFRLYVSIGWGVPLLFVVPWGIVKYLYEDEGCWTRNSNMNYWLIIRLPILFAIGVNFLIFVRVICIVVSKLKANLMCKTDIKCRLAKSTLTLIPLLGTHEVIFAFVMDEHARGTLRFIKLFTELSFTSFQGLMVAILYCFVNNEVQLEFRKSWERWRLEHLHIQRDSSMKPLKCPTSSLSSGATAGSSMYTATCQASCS", "test": "qHTS of GLP-1 Receptor Inverse Agonists (Inhibition Mode); note: nearly all actives have a fitted effect of over 55% in size", "settings": "HEK293 GLP-1R CRE-luciferase, luminescence, 24 h, GLP-1R form is constitutively active; activity change, negative = inhibition: at 38.3 µM (top of the series) unless noted", "summary_of_the_method": "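Inverse agonists were sought by their lowering of basal cAMP reporter luciferase output in HEK293 cells stably carrying constitutively active human GLP-1R, after 24 h compound treatment.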", "values": [
      {"smiles": "O=C(N/C(=C/c1ccc(Br)cc1)C(=O)N1CCCC1=O)c1ccco1", "Potency": "inconclusive: 31.6 µM [inhibitor, single point]"},
      {"smiles": "Cc1cccc(/C=N/NC(=O)c2c(-c3ccccc3)noc2C)c1O", "Potency": "inconclusive: 1.58 µM [inhibitor, partial curve, poor fit]"},
      {"smiles": "CCCCN(CCCC)C(=S)NC(=O)C(C)(C)C", "Potency": "inconclusive: 22.4 µM [inhibitor, single point]"},
      {"smiles": "Cc1cccc(C2=NN(c3ccccc3)[C@H](CO)[C@H]2c2ccccc2)c1", "Potency": "inconclusive: 12.6 µM [inhibitor, single point]"},
      {"smiles": "CN(C)c1ccc(NC(=O)CSC2=Nc3ccccc3C3=NC(CCC(=O)NCc4cccs4)C(=O)N23)cc1", "note": "(stereo not drawn)", "Potency": "active: 5.62 µM"},
      {"smiles": "Cc1cc(NC(=O)Cc2ccsc2)ccc1Br", "Potency": "inconclusive: 11.2 µM [inhibitor, partial curve, poor fit]"},
      {"smiles": "Cc1cccc(C)c1NC(=O)COC(=O)COc1ccc2c(C)cc(=O)oc2c1", "activity change, negative = inhibition": "inactive: 11.2%"},
      {"smiles": "Cc1ccc(/C=C2\\SC(=S)N(CCCC(=O)NNC(=O)c3ccccc3O)C2=O)cc1", "Potency": "inconclusive: 2.24 µM [inhibitor, full curve, poor fit]"},
      {"smiles": "c1ccc(CCC2Cc3ccccc3N2)cc1", "note": "(stereo not drawn)", "activity change, negative = inhibition": "inactive: 0.336%"},
      {"smiles": "CCOc1ccc(S(=O)(=O)N2CCC(C(=O)Nc3ccccc3N3CCCC3)CC2)cc1", "Potency": "inconclusive: 14.1 µM [inhibitor, single point]"},
      {"smiles": "Cn1cccc1/C=N/NC(=O)C12CC3CC(CC(C3)C1)C2", "Potency": "inconclusive: 3.16 µM [inhibitor, partial curve, poor fit]"},
      {"smiles": "COc1ccc2c(CNCc3cccs3)c(C(=O)O)n(Cc3ccccc3F)c2c1", "activity change, negative = inhibition": "inactive: -31.9%"},
      {"smiles": "O=C(NCc1ccccc1)c1ccc2oc(=O)n(Cc3ccccc3)c2c1", "Potency": "inconclusive: 28.2 µM [inhibitor, single point]"},
      {"smiles": "CC(NC(=O)Cn1cc([N+](=O)[O-])cn1)c1ccc(C(C)(C)C)cc1", "note": "(stereo not drawn)", "Potency": "inconclusive: 28.2 µM [inhibitor, single point]"},
      {"smiles": "COc1ccc(C(=O)NC2CCN(S(=O)(=O)c3ccc(C)cc3)CC2)cc1", "Potency": "inconclusive: 7.94 µM [inhibitor, partial curve, poor fit]"},
      {"smiles": "Cc1ccc(C(NC(=O)c2cccc(S(=O)(=O)N3CCN(C)CC3)c2)c2ccccc2)cc1", "note": "(stereo not drawn)", "Potency": "inconclusive: 28.2 µM [inhibitor, single point]"},
      {"smiles": "Fc1ccc(/C=C/c2nnc(-c3cccs3)o2)cc1", "activity change, negative = inhibition": "inactive: 12.1%"},
      {"smiles": "CNCC[C@@H](Oc1ccccc1C)c1ccccc1", "Potency": "inconclusive: 5.01 µM [inhibitor, full curve, poor fit]"},
      {"smiles": "c1ccc(CN2CCC3(CCCc4ccccc43)CC2)cc1", "Potency": "inconclusive: 3.55 µM [inhibitor, partial curve, poor fit]"},
      {"smiles": "CCOC(=O)N1CCN(C(=O)c2ccc3c(c2)N=C(C)c2cc(Cl)ccc2S3)CC1", "Potency": "inconclusive: 2 µM [inhibitor, full curve]"},
      {"smiles": "Cc1ccc(S(=O)(=O)N2CCOCC2)cc1C(=O)N1CCC(Cc2ccccc2)CC1", "Potency": "inconclusive: 10 µM [inhibitor, partial curve, poor fit]"},
      {"smiles": "O=C(COC(=O)CCC(=O)c1ccc(F)cc1)Nc1cccc(S(=O)(=O)N2CCOCC2)c1", "activity change, negative = inhibition": "inactive: 11.8%"},
      {"smiles": "COc1ccc(NC(=O)CN2CCC(NC(=O)C3CCCCC3)CC2)c([N+](=O)[O-])c1", "activity change, negative = inhibition": "inactive: 7.53%"},
      {"smiles": "CCCNC(=O)CSc1nc(-c2ccc(OC)cc2)cc(C(F)(F)F)n1", "activity change, negative = inhibition": "inactive: 3.8%"},
      {"smiles": "C=CCn1c(SCc2c(F)c(F)c(F)c(F)c2F)nc(O)cc1=O", "Potency": "inconclusive: 31.6 µM [inhibitor, single point]"},
      {"smiles": "CCOC(=O)Cn1c(=O)n(-c2ccccc2OC)c2nc(-c3ccc(C(C)C)cc3)nc(C(N)=O)c21", "activity change, negative = inhibition": "inactive: -41.7%"},
      {"smiles": "CCOC(=O)C1=CCN(S(=O)(=O)c2ccccc2Br)C1c1ccc(Br)cc1", "note": "(stereo not drawn)", "Potency": "inconclusive: 17.8 µM [inhibitor, single point]"},
      {"smiles": "COc1cccc(-c2cc(C(F)(F)F)nc(NCc3ccco3)n2)c1", "Potency": "inconclusive: 11.2 µM [inhibitor, single point]"},
      {"smiles": "CCOC(=O)c1c(Oc2ccc(C(C)=O)cc2)nnc(-c2ccccc2)c1-c1ccccc1", "Potency": "inconclusive: 11.2 µM [inhibitor, partial curve, poor fit]"},
      {"smiles": "COc1cc(/C=N/N2CCCCC2)cc([N+](=O)[O-])c1O", "activity change, negative = inhibition": "inactive: 53.1%"},
      {"smiles": "O=S(=O)(Nc1cccc(CCc2ccccn2)c1)c1cc(Cl)ccc1Cl", "Potency": "inconclusive: 28.2 µM [inhibitor, single point]"},
      {"smiles": "CC(C)(C)c1ccc(S(=O)(=O)NC(=O)C2(C)CCN2C(=O)Cc2ccc(-c3ccccc3)cc2)cc1", "note": "(stereo not drawn)", "Potency": "inconclusive: 31.6 µM [inhibitor, single point]"},
      {"smiles": "COc1ccccc1C(C)NC(=O)CCOc1cccc(C)c1", "note": "(stereo not drawn)", "Potency": "inconclusive: 28.2 µM [inhibitor, single point]"},
      {"smiles": "CCOc1ccc(N(CC(=O)NCc2ccccc2)S(=O)(=O)c2c(C)noc2C)cc1", "Potency": "inconclusive: 7.94 µM [inhibitor, partial curve, poor fit]"},
      {"smiles": "COC(=O)c1sc(S(=O)(=O)N2CCCCC2C)c(C(=O)OC)c1C", "note": "(stereo not drawn)", "Potency": "inconclusive: 31.6 µM [inhibitor, single point]"},
      {"smiles": "Cc1cc(F)ccc1S(=O)(=O)Nc1ccc(C(=O)N2CCCCCC2)cc1", "Potency": "inconclusive: 11.2 µM [inhibitor, single point]"},
      {"smiles": "Cc1ccc(C(c2nnnn2C2CCCC2)N2CCN3CCCC3C2)cc1", "note": "(stereo not drawn)", "Potency": "inconclusive: 10 µM [inhibitor, partial curve, poor fit]"},
      {"smiles": "O=C1C2C3C=CC(C4CC34)C2C(=O)N1/N=C/c1ccc(-c2ccccc2[N+](=O)[O-])o1", "note": "(stereo not drawn)", "Potency": "inconclusive: 2.82 µM [inhibitor, partial curve, poor fit]"},
      {"smiles": "CCCC(NCC(=O)Nc1cc(S(=O)(=O)N2CCOCC2)ccc1OC)c1ccccc1", "note": "(stereo not drawn)", "Potency": "inconclusive: 10 µM [inhibitor, partial curve]"},
      {"smiles": "O=C(NC(=S)N1CCN(C/C=C/c2ccccc2)CC1)c1ccco1", "activity change, negative = inhibition": "inactive: -20.3%"},
      {"smiles": "COc1ccc(C(=O)c2[nH]c(N)c(C(=O)NCCc3c[nH]c4ccccc34)c2-c2ccc(Cl)c(F)c2)cc1", "Potency": "inconclusive: 10 µM [inhibitor, partial curve, poor fit]"},
      {"smiles": "CCc1nnc(NC(=O)CCC(=O)N2CCN(c3cccc(Cl)c3)CC2)s1", "Potency": "inconclusive: 5.62 µM [inhibitor, partial curve]"},
      {"smiles": "Cc1nc2ccn(Cc3ccco3)c(=O)c2cc1C(=O)NCc1ccc(F)cc1", "Potency": "inconclusive: 1.26 µM [inhibitor, full curve, poor fit]"},
      {"smiles": "O=C(CSc1n[nH]c(=O)n1C1CC1)Nc1ccccc1", "activity change, negative = inhibition": "inactive: 38.5%"},
      {"smiles": "O=S(=O)(c1cccc(NC(=S)N2CCN(c3ccc(F)cc3)CC2)c1)C(F)F", "Potency": "inconclusive: 7.08 µM [inhibitor, partial curve, poor fit]"},
      {"smiles": "COc1ccc(-c2cc3nc(NCC4CCCCC4)n(C)c(=O)c3s2)cc1OC", "activity change, negative = inhibition": "inactive: -9.23%"},
      {"smiles": "Cc1cccc(COc2ccccc2/C=N/Nc2ccc([N+](=O)[O-])cc2)c1", "Potency": "inconclusive: 25.1 µM [inhibitor, single point]"},
      {"smiles": "CC12CCC(=O)N1C(C(=O)Nc1nc3c(F)cc(F)cc3s1)CS2", "note": "(stereo not drawn)", "Potency": "inconclusive: 10 µM [inhibitor, single point]"},
      {"smiles": "Cc1ccc(CNC(=O)CS(=O)Cc2nc(-c3ccccc3C)oc2C)cc1", "note": "(stereo not drawn)", "Potency": "inconclusive: 28.2 µM [inhibitor, single point]"},
      {"smiles": "CCn1cc(S(=O)(=O)CC(=O)Nc2cc(C)on2)c2ccccc21", "Potency": "inconclusive: 10 µM [inhibitor, single point]"},
      {"smiles": "O=C(Nc1ccc(Br)cc1)c1cccnc1N1CCCCC1", "Potency": "inconclusive: 28.2 µM [inhibitor, single point]"},
      {"smiles": "CCN1CCN(C(CC(C)C)c2nnnn2CS(=O)(=O)c2ccc(C)cc2)CC1", "note": "(stereo not drawn)", "Potency": "inconclusive: 11.2 µM [inhibitor, partial curve, poor fit]"},
      {"smiles": "O=C(Nc1ccc(F)c(Cl)c1)C1CC2CCC1C2", "note": "(stereo not drawn)", "Potency": "inconclusive: 11.2 µM [inhibitor, partial curve, poor fit]"},
      {"smiles": "CC(=O)Nc1ccc(S(=O)(=O)N(C)CC(=O)OCC(=O)N2CC(C)OC(C)C2)cc1", "note": "(stereo not drawn)", "Potency": "inconclusive: 10 µM [inhibitor, single point]"},
      {"smiles": "CCN(C(=O)c1cc(S(=O)(=O)N2CCc3ccccc32)cn1C)c1ccccc1", "Potency": "inconclusive: 11.2 µM [inhibitor, single point]"},
      {"smiles": "Cc1c(CNC(=O)c2c([N+](=O)[O-])cnn2C)cnn1C", "activity change, negative = inhibition": "inactive: -7.93%"},
      {"smiles": "COc1ccc(-c2csc(C(C)(O)c3ccccc3)n2)cc1", "note": "(stereo not drawn)", "Potency": "inconclusive: 8.91 µM [inhibitor, partial curve, poor fit]"},
      {"smiles": "NS(=O)(=O)c1cccc(NC(=O)CSc2nc3ccccc3c(=O)n2Cc2ccco2)c1", "Potency": "inconclusive: 12.6 µM [inhibitor, single point]"},
      {"smiles": "Cc1nn(-c2ccccc2)c(C)c1C(=O)OCC(=O)NC(=O)NC1CCCCC1", "Potency": "inconclusive: 15.8 µM [inhibitor, single point]"},
      {"smiles": "CC(N=C1NS(=O)(=O)c2ccccc21)C(=O)NCCCc1ccccc1", "note": "(stereo not drawn)", "activity change, negative = inhibition": "inactive: -0.583%"},
      {"smiles": "Cc1cc(C)cc(NC(=O)CCC(=O)N2CCSc3ccccc32)c1", "Potency": "inconclusive: 17.8 µM [inhibitor, single point] and inconclusive: 15.8 µM [inhibitor, single point]"},
      {"smiles": "O=C(CN1CCN(Cc2ccccc2Cl)C1=O)NC1CCCCCC1", "Potency": "inconclusive: 15.8 µM [inhibitor, single point]"},
      {"smiles": "N=c1c2c(n(Cc3cccc(Cl)c3)c3c1CCC3)CCCC2", "activity change, negative = inhibition": "inactive: -2.16%"}
    ]}
  ]
}
